From the supplement of paper PMC9446081
About 220 (0.56%) of roughly 39,000 compounds showed activity. The list shows a part of the results.
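Further: static incubation at 37 °C against the wild-type strain, values averaged over two biological replicates.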

What follows are compounds tested on Escherichia coli K-12 BW25113 (assay: relative growth (OD600 normalised to plate interquartile mean) (fraction); higher = less growth inhibition, active = 0.2 or less). Settings: 50 µM; LB; incubation time: overnight (16-24 h).
For C[C@@H]1CN([C@H](C)CO)C(=O)Cc2cc(NC(=O)c3ccncc3)ccc2O[C@H]1CN(C)C(=O)NC1CCCCC1, the relative growth was inactive: 0.956. In the case of C[C@H](CO)N1C[C@H](C)[C@H](CN(C)Cc2ccc(C(F)(F)F)cc2)Oc2ccc(NC(=O)Nc3ccc4c(c3)OCO4)cc2C1=O, the relative growth is reported as inactive: 0.997. With C[C@H](CO)N1C[C@H](C)[C@@H](CN(C)S(=O)(=O)c2cccs2)Oc2ccc(NS(=O)(=O)c3cccs3)cc2C1=O the relative growth was inactive: 0.985. In the case of C[C@@H]1CCCCO[C@H](CN(C)Cc2ccccc2)[C@@H](C)CN([C@@H](C)CO)C(=O)c2cc(NC(=O)Nc3cccc4ccccc34)ccc2O1, the relative growth is reported as inactive: 1.04. In the case of C[C@@H]1CN([C@@H](C)CO)C(=O)c2cc(C#CC3(O)CCCC3)cnc2O[C@H]1CN(C)C(=O)Cc1ccncc1, the relative growth is reported as inactive: 1.01. In the case of Cc1noc(C)c1S(=O)(=O)Nc1cccc2c1O[C@@H](CN(C)S(C)(=O)=O)[C@@H](C)CN([C@H](C)CO)C2=O, the relative growth is reported as inactive: 0.996. C[C@H](CO)N1C[C@H](C)[C@@H](CN(C)C(=O)C2CCOCC2)Oc2cc(C3=CCCC3)ccc2S1(=O)=O was tested, and the relative growth was inactive: 0.992. For O=C(C[C@@H]1C=C[C@@H](NC(=O)C2CC2)[C@H](CO)O1)NCCCN1CCOCC1, the relative growth was inactive: 0.969. For C[C@H](CO)N1C[C@H](C)[C@H](CN(C)C(=O)NC2CCCCC2)OCCCC[C@H](C)Oc2ccc(NS(=O)(=O)c3ccccc3)cc2C1=O, the relative growth was inactive: 1.03. CC(C)C#Cc1ccc2c(c1)O[C@H](CN(C)C(=O)Cc1ccccn1)[C@@H](C)CN([C@H](C)CO)S2(=O)=O was tested, and the relative growth was inactive: 1.04. For CC(C)COCC(CN(Cc1ccccc1)c1ccccc1)N1CCCC1.Cl (stereo not drawn), the relative growth was inactive: 1. In the case of C[C@H]1CN([C@@H](C)CO)C(=O)c2c(c3ccccc3n2C)-c2ccccc2CO[C@@H]1CN(C)Cc1ccc2c(c1)OCO2, the relative growth is reported as inactive: 0.972. With CC[C@@H](CO)NCCN[C@@H](CC)CO the relative growth was inactive: 0.969. With Cn1cnc(S(=O)(=O)N2C[C@H](O)COC[C@H]3O[C@H](CC(=O)NCc4cc(F)cc(F)c4)CC[C@@H]32)c1 the relative growth was inactive: 1.02. With CC(=O)N(C)C[C@H]1Oc2ncc(C#CC(C)(C)O)cc2C(=O)N([C@H](C)CO)C[C@@H]1C the relative growth was inactive: 0.982. With CCS(=O)(=O)Nc1ccc2c(c1)C(=O)N(C)[C@H]1CC[C@H](CC(=O)NCc3ccc(OC)cc3)O[C@H]1CO2 the relative growth was inactive: 1. In the case of C[C@@H]1CCCCO[C@H](CN(C)C(=O)Nc2ccc3c(c2)OCO3)[C@H](C)CN([C@H](C)CO)C(=O)c2cc(NC(=O)c3ccncc3)ccc2O1, the relative growth is reported as inactive: 0.996. COc1cc2c(cc1OC)CN(CCc1ccc(-n3nnc(-c4cc(OC)c(OC)cc4NC(=O)c4cc(=O)c5ccccc5o4)n3)cc1)CC2 was tested, and the relative growth was inactive: 1.02. With C[C@H](CO)N1C[C@H](C)[C@@H](CN(C)C(=O)c2ccccc2)OCCCC[C@H](C)Oc2ccc(NC(=O)Nc3ccc(C(F)(F)F)cc3)cc2C1=O the relative growth was inactive: 1.01. C[C@H]1CCCCO[C@H](CN(C)C(=O)c2ccccc2)[C@@H](C)CN([C@@H](C)CO)C(=O)c2cc(NC(=O)C3CCCCC3)ccc2O1 was tested, and the relative growth was inactive: 0.989. With C[C@@H]1CCCCO[C@H](CN(C)C(=O)Nc2ccc3c(c2)OCO3)[C@H](C)CN([C@@H](C)CO)C(=O)c2cc(NC(=O)Cc3ccccc3)ccc2O1 the relative growth was inactive: 1.07. COc1ccc(-n2c(N)cc(=O)[nH]c2=O)cc1 was tested, and the relative growth was inactive: 1.03. In the case of C[C@@H]1CCCCO[C@H](CN(C)C(=O)Nc2ccccc2)[C@H](C)CN([C@H](C)CO)C(=O)c2cc(NC(=O)NC3CCCCC3)ccc2O1, the relative growth is reported as inactive: 1.03. CC(C)NC(=O)N(C)C[C@H]1Oc2ccc(NC(=O)Cc3ccccc3)cc2CC(=O)N([C@H](C)CO)C[C@H]1C was tested, and the relative growth was inactive: 0.983. With O=C(C[C@@H]1C[C@H]2c3cc(NS(=O)(=O)c4ccc(F)cc4)ccc3O[C@H]2[C@@H](CO)O1)NCCc1ccccc1 the relative growth was inactive: 0.998. For COCCN1C(=O)C2=C(C1=O)[C@H]1N(C)c3ccccc3[C@@]13C[C@@H](CO)N(C(C)=O)C3=N2, the relative growth was inactive: 0.994. In the case of COc1ccccc1NC(=O)N(C)C[C@H]1OCc2ccccc2-c2c(n(C)c3ccccc23)C(=O)N([C@H](C)CO)C[C@@H]1C, the relative growth is reported as inactive: 1.03. In the case of CCS(=O)(=O)Nc1ccc2c(c1)C(=O)N(C)C[C@@H](OC)[C@H](C)CN(CCC(F)(F)F)[C@H](C)CO2, the relative growth is reported as inactive: 0.985. COc1ccc(NC(=O)Nc2ccc3c(c2)C(=O)N([C@H](C)CO)C[C@@H](C)[C@@H](CN(C)Cc2ccc(Oc4ccccc4)cc2)O3)cc1 was tested, and the relative growth was inactive: 1.01. C[C@H](CO)N1C[C@H](C)[C@H](CN(C)C(=O)Nc2ccc(C(F)(F)F)cc2)Oc2ccc(NC(=O)CCCCCC(=O)Nc3ccccc3N)cc2CC1=O was tested, and the relative growth was inactive: 0.992. Cc1ccc(S(=O)(=O)N(C)C[C@@H]2Oc3ccc(NC(=O)Nc4cccc5ccccc45)cc3C(=O)N([C@H](C)CO)C[C@H]2C)cc1 was tested, and the relative growth was inactive: 1.01. In the case of C[C@H](CO)N1C[C@H](C)[C@@H](CN(C)C)OCCCC[C@H](C)Oc2ccc(NS(=O)(=O)c3cn(C)cn3)cc2C1=O, the relative growth is reported as inactive: 0.984. In the case of Cn1c(=O)c2cn3ncccc3c2n(C)c1=O, the relative growth is reported as inactive: 0.974. C[C@@H]1CN([C@@H](C)CO)S(=O)(=O)c2ccc(C#Cc3ccccc3)cc2O[C@H]1CN(C)S(C)(=O)=O was tested, and the relative growth was inactive: 1.02. In the case of Cc1ccc(S(=O)(=O)N(C)C[C@H]2Oc3ncc(Br)cc3C(=O)N([C@@H](C)CO)C[C@@H]2C)cc1, the relative growth is reported as inactive: 0.982. In the case of O=C(Nc1ccc2c(c1)[C@@H]1C[C@@H](CC(=O)N3CCc4ccccc4C3)O[C@@H](CO)[C@@H]1O2)C1CCOCC1, the relative growth is reported as inactive: 1. CO[C@@H](CN(C)C(=O)c1ccc2c(c1)OCO2)[C@H](C)CN([C@@H](C)CO)S(=O)(=O)c1ccc(F)cc1 was tested, and the relative growth was inactive: 0.887. For COc1cccc(S(=O)(=O)N(C)C[C@H]2Oc3cc(C#CCN(C)C)ccc3S(=O)(=O)N([C@@H](C)CO)C[C@@H]2C)c1, the relative growth was inactive: 1.01.
